Measured values reported in US20260200947A1, “FUSED CYCLIC COMPOUNDS AND USE THEREOF” (Jacobio Pharmaceuticals Co., Ltd., priority 2022, published 2026).

Compound	pIC50 (SW620 cells (K-Ras G12V))	pIC50 (AGS cells (K-Ras G12D))
C#Cc1c(F)ccc2cc(O)cc(-c3nc4c5c(nc(OCC67CC(=C)CN6CC(=C)C7)nc5c3F)N3CCCOC[C@H]3CO4)c12 [Compound 2]	7.36	
C#Cc1c(F)ccc2cc(N)cc(-c3nc4c5c(nc(OCC67CC(=C)CN6CC(=C)C7)nc5c3F)N3CCCOC[C@H]3CO4)c12 [Compound 3]		7.33

pIC50: −log10 of the molar value.
